From the antibiotic and cytotoxicity screens of Wong et al. (2023)
The other results are listed elsewhere or left out.

Legend:
HSkMC = human skeletal muscle cells; assay: cytotoxicity call (relative viability < 0.9); settings: 10 µM
HepG2 = assay: cytotoxicity call (relative viability < 0.9); settings: 10 µM
S. aureus RN4220 = assay: growth inhibition call (relative growth <= 0.2); settings: 50 µM

| SMILES | cytotoxicity call (HSkMC) | cytotoxicity call (HepG2) | growth inhibition call (S. aureus RN4220) |
| --- | --- | --- | --- |
| C=C1C=[N+]([O-])N(c2ccc(C(=O)O)cc2)N1 | inactive | inactive | inactive |
| O=C(O)C1=CCCNC1 | inactive | inactive | inactive |
| C[C@@H]1CCCCO[C@@H](CN(C)S(=O)(=O)c2cccs2)[C@@H](C)CN([C@@H](C)CO)C(=O)c2cc(NC(=O)Nc3ccc(C(F)(F)F)cc3)ccc2O1 | inactive | inactive | inactive |
| C[C@@H]1CCCCO[C@H](CN(C)Cc2ccccc2)[C@@H](C)CN([C@@H](C)CO)C(=O)c2cc(NC(=O)Nc3ccc(C(F)(F)F)cc3)ccc2O1 | active | active | inactive |
| CO[C@@H]1CN(C)C(=O)c2ccc(NS(=O)(=O)CC(F)(F)F)cc2OC[C@H](C)N(Cc2nccs2)C[C@@H]1C | inactive | inactive | inactive |
| COc1ccc([C@@H]([C@H](Cc2ccccc2)OC(C)=O)N2C[C@@H](NC(=O)C(Cl)(Cl)Cl)[C@@H]3C(=NO[C@H]3c3ccccc3)[C@@H]2Cc2ccccc2)cc1 | inactive | inactive | inactive |
| CC(C)Nc1ncccn1 | inactive | inactive | inactive |
| CCCCCCCCCCCCCCCC(=O)NCCO | inactive | inactive | inactive |
| C[C@H](CO)N1C[C@H](C)[C@H](CN(C)C(=O)c2ccc3c(c2)OCO3)Oc2cc(C#Cc3ccccc3F)ccc2S1(=O)=O | inactive | inactive | inactive |
| Cc1cnc(C(=O)N2C[C@@H]3COC[C@@]3(CNS(C)(=O)=O)C2)cn1 | inactive | inactive | inactive |
| c1ccc(-c2ccc([C@H](c3ccccc3)n3ccnc3)cc2)cc1 | inactive | inactive | inactive |
| O=C(/C=C/c1ccc(O)c(O)c1)O[C@@H]1C[C@](O)(C(=O)O)C[C@@H](OC(=O)/C=C/c2ccc(O)c(O)c2)[C@H]1OC(=O)/C=C/c1ccc(O)c(O)c1 | inactive | inactive | inactive |
| CN(C)CCN1CCO[C@@H]2CN(Cc3cnn(C)c3)C[C@@H]21 | inactive | inactive | inactive |
| C[C@@H]1CCCCO[C@H](CN(C)S(=O)(=O)c2ccc(F)cc2)[C@@H](C)CN([C@@H](C)CO)C(=O)c2cc(NC(=O)Cc3ccccc3)ccc2O1 | inactive | active | inactive |
| COCC#Cc1ccc2c(c1)O[C@H](CN(C)S(C)(=O)=O)[C@@H](C)CN([C@H](C)CO)S2(=O)=O | inactive | inactive | inactive |
| C[C@H](CO)N1C[C@H](C)[C@@H](CN(C)Cc2ccc(C(=O)O)cc2)OCc2ccccc2-c2c(n(C)c3ccccc23)C1=O | inactive | inactive | inactive |
| Cc1ccc(S(=O)(=O)N(C)C[C@@H]2OCCCC[C@@H](C)Oc3ccc(NC(=O)Nc4ccc(F)cc4)cc3C(=O)N([C@H](C)CO)C[C@@H]2C)cc1 | inactive | inactive | inactive |
| COc1ccc([Si](C)(C)[C@H]2[C@H](CCO)O[C@@]3(C(=O)N(Cc4cccc(N5C(=O)c6ccccc6Oc6ccccc65)c4)c4ccccc43)[C@@H]2C)cc1 | inactive | active | inactive |
| C[C@@H]1CN([C@H](C)CO)C(=O)Cc2cc(NC(=O)C3CC3)ccc2O[C@H]1CN(C)S(=O)(=O)c1ccc(F)cc1 | inactive | inactive | inactive |
| C[C@@H]1CCCCO[C@@H](CN(C)C(=O)CCC(F)(F)F)[C@@H](C)CN([C@@H](C)CO)C(=O)c2cc(NS(=O)(=O)c3ccccc3)ccc2O1 | inactive | inactive | inactive |
| COc1ccc(NC(=O)N(C)C[C@@H]2OCCCC[C@H](C)Oc3ccc(NC(=O)C4CCCCC4)cc3C(=O)N([C@H](C)CO)C[C@H]2C)cc1 | inactive | inactive | inactive |
| COc1ccc(CN(C)C[C@@H]2OCCCC[C@@H](C)Oc3ccc(NS(=O)(=O)c4ccc(Cl)cc4)cc3C(=O)N([C@@H](C)CO)C[C@@H]2C)cc1 | inactive | inactive | inactive |
| Cc1cc(=O)nc(-n2ncc(C#N)c2N)[nH]1 | inactive | inactive | inactive |
| C[C@@H]1CN([C@H](C)CO)C(=O)c2cc(NC(=O)Nc3ccc4c(c3)OCO4)ccc2O[C@@H](C)CCCCO[C@@H]1CN(C)Cc1ccc(Cl)c(Cl)c1 | inactive | active | inactive |
| O=C1O[C@H](c2ccccc2)[C@H](c2ccccc2)N2[C@H]1[C@@H](C(=O)N1CCN(c3ncccn3)CC1)[C@]1(C(=O)Nc3ccc(C#CC4(O)CCCCCC4)cc31)[C@H]2c1ccc(O)cc1 | inactive | inactive | inactive |
